# Whole data set: some 33,000 sequences, median “E-score (-0.5 to 0.5)” near -0.012, cut for the highest 2% near 0.27. This is one part of the list.
# Target: T1, Vhr1 (UniProt P40522)
# T1 sequence: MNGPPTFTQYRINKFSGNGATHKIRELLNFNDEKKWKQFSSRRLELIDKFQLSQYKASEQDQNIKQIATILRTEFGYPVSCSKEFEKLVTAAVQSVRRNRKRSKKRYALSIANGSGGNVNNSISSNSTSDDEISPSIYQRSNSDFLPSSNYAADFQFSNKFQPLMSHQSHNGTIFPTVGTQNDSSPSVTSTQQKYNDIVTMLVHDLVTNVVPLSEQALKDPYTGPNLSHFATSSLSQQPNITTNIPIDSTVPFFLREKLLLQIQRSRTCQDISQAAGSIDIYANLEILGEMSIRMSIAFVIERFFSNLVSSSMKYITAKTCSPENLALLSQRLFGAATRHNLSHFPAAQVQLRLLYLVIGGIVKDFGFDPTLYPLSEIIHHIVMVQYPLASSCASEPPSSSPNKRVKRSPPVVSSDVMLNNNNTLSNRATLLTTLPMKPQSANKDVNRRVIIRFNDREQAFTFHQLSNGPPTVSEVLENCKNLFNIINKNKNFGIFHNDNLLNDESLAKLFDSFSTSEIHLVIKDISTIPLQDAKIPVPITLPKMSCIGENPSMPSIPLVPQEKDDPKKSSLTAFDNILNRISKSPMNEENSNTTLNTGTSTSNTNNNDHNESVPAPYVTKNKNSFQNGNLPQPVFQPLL
# Experiment: PBM E-score (8-mer binding enrichment) (E-score (-0.5 to 0.5)); higher = stronger / more preferred TF binding; most listed sequences are background and not binding sites
# Details: protein concentration: 200 nM; construct: GST-full length
# Method: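 Universal 'all 10-mer' protein binding microarrays (Agilent AMADID 015681) probed with GST-tagged S. cerevisiae TFs (full-length or DBD) made by in vitro transcription/translation (PURExpress), about 100-200 nM. Bound TF was detected with fluorescent anti-GST. Each ungapped 8-mer (which stands for itself and its reverse complement) is scored by the PBM enrichment score (E-score), a modified Wilcoxon-Mann-Whitney statistic from -0.5 to +0.5, computed with the Universal PBM Analysis Suite. Scale: above 0.35 generally sequence-specific binding.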
row,Sequence,PBM E-score
1,ACATGGGC,0.165
2,CACGGAAG,-0.026
3,GAGCGCGA,0.217
4,AACGTAGC,-0.149
5,ATGACTTA,0.349
6,GCTGCTCC,-0.159
7,CGAGGTCA,0.0869
8,GCTCCCGA,-0.0166
9,CAAAATCA,-0.0188
10,TCTCAAGA,-0.247
11,CGTATGGC,0.0157
12,GTCTTGGA,-0.0486
13,CCGCGCCC,0.19
14,AAGAGTAC,-0.00642
15,AATAGAGC,-0.0508
16,GGCCCGGA,0.102
17,AAGCATCA,0.156
18,ACCACTTC,-0.0774
19,AACGCAAT,-0.0275
20,CGGTGTAG,0.145
21,ATAGTACA,0.258
22,AGCTGCGC,0.0217

row,Sequence,PBM E-score
1,AGGGAAGG,-0.227
2,TAAATCTA,-0.202
3,CCATTCTC,-0.0852
4,ACTTGCGC,0.0429
5,ATACGTGA,0.0611
6,CCCAGCCA,0.145
7,ATGTCTAG,0.12
8,CCTCGGTA,-0.0693
9,ACGTCTTC,-0.0534
10,ACCTATGC,0.0092
11,CGCGTTAG,-0.131
12,ATGAACTA,-0.0649
13,GATGGTGC,-0.392
14,AGGTGCTA,-0.262
15,AGGCCGGC,-0.0926
16,CCCGTTAG,-0.144
17,ATATGAAT,0.0663
18,ACCCCAGC,0.157
19,CCCGACAG,-0.00524
20,ATTACGAA,-0.0381
21,ACGCAAAC,0.129
22,CGGCATAG,0.0147

row,Sequence,PBM E-score
1,TATTTTAA,-0.0788
2,CCCATCAG,-0.156
3,CCAACCAC,0.159
4,AACTCACA,0.202
5,TCGGGCCA,0.0209
6,ACTCTTTG,0.0519
7,ACTACCCT,0.12
8,ACCCTTAA,-0.166
9,AGCTGCAC,-0.0879
10,GACTCCAC,0.346
11,CTAAGAAA,-0.112
12,GCAGGCAC,-0.0269
13,ACGACCGT,-0.169
14,AGGATCGC,0.0461
15,CGAGTACA,0.0863
16,ACCAACAC,0.0868
17,CCGTCCAA,-0.0876
18,GGGCGGGA,0.199
19,AGCGTTTG,-0.189
20,CGGAGTGC,0.139
21,ACAGGGGT,-0.139
22,AGCAGCAA,0.00345

row,Sequence,PBM E-score
1,AGATAGGA,-0.132
2,ACATCGAA,0.144
3,AGGAGTAG,0.0516
4,CAACAAGA,0.073
5,AGGACCAA,-0.0137
6,AACTCCAA,0.0433
7,CATAAAAG,-0.148
8,CCACCTAC,-0.017
9,AGCGTGCC,-0.106
10,ACTGGCTA,0.0572
11,CTCAGTAC,0.00485
12,GAGTTCCA,-0.0698
13,CGCCCCAA,0.173
14,GCTGTCCC,-0.206
15,CGTTTCTC,-0.0242
16,AAAAGGAT,-0.123
17,GACGTCAC,0.00621
18,ACCATAAC,0.228
19,CCTCTGTC,-0.184
20,CACGTAAA,-0.322

# Reference: the supplement of paper PMC3334620
